These results are taken from the BET-seq Pho4 binding data (Le et al. 2018).

The other results are listed elsewhere or left out. The energies were worked out here from pooled read counts, against the library average; single values are noisy.

This assay addresses T1, Pho4 (S. cerevisiae) (UniProt P07270).
T1 sequence: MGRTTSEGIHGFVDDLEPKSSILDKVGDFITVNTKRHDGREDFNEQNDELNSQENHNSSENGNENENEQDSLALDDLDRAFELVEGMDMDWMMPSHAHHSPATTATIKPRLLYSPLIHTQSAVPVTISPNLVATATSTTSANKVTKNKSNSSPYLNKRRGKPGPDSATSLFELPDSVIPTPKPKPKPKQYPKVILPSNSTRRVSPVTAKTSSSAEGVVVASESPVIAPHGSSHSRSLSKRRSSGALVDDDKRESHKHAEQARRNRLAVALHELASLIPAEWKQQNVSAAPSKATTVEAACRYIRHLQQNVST
In words: relative binding free energy (BET-seq); higher = weaker binding. The note with it: reference: library average.
TACTTCACGTGGGCGT: the “relative binding free energy” value amounted to 0.586 kJ/mol.

Consider TAGGGCACGTGAAAAT, for which the “relative binding free energy” value came to 0.46 kJ/mol.

Take TGAGTCACGTGCGTCG: the “relative binding free energy” value worked out at 0.0837 kJ/mol.

For CTTGACACGTGGTTTG, the “relative binding free energy” value was determined as 0.0837 kJ/mol.

With TTTTGCACGTGGGCGC, the “relative binding free energy” value was -0.0418 kJ/mol.

TTTGACACGTGGGGCT: the “relative binding free energy” value was -0.669 kJ/mol.

As for CGTTGCACGTGTTTGG, the “relative binding free energy” value is -0.209 kJ/mol.

On to GTGATCACGTGGCGGT, for which the “relative binding free energy” value is 0.46 kJ/mol.

Take ACTGTCACGTGTTCTG: the “relative binding free energy” value worked out at 0.418 kJ/mol.

With AAGGGCACGTGCTGTG, the “relative binding free energy” value is -0.879 kJ/mol.

Regarding AAGTACACGTGGGAAG, the “relative binding free energy” value was -0.209 kJ/mol.

With AAGAGCACGTGTAGGG, the “relative binding free energy” value was -0.335 kJ/mol.

Take GAGCGCACGTGTGTAG: the “relative binding free energy” value is -0.251 kJ/mol.

Take AGGCGCACGTGGAGAA: the “relative binding free energy” value is 0.251 kJ/mol.

Regarding TGATTCACGTGTATAA, the “relative binding free energy” value is 0.335 kJ/mol.

Consider TATGGCACGTGGTAAT, for which the “relative binding free energy” value is -0.293 kJ/mol.

In the case of TGTATCACGTGGGCAA, the “relative binding free energy” value is -0.293 kJ/mol.

Consider GAGCGCACGTGTTGTT, for which the “relative binding free energy” value was -0.418 kJ/mol.

For CGGTGCACGTGGATTT, the “relative binding free energy” value is 0.251 kJ/mol.

Consider GGGGGCACGTGGTAGT, for which the “relative binding free energy” value was -0.251 kJ/mol.

On to AACTACACGTGGGTTT, for which the “relative binding free energy” value was -0.0418 kJ/mol.

Regarding ATTAACACGTGAGGTT, the “relative binding free energy” value came to 1.26 kJ/mol.

Take AAGGACACGTGTTTTG: the “relative binding free energy” value was -0.126 kJ/mol.

On to GTGGGCACGTGTTAAC, for which the “relative binding free energy” value came out at 0.167 kJ/mol.

As to GGTTACACGTGCGGAG, the “relative binding free energy” value is 0.879 kJ/mol.

In the case of TATGGCACGTGTAGGA, the “relative binding free energy” value is -0.377 kJ/mol.

For TATTGCACGTGTCTGA, the “relative binding free energy” value came to 0.46 kJ/mol.

As for CGTTACACGTGTTATG, the “relative binding free energy” value stood at 0.628 kJ/mol.

Consider TGCTGCACGTGTTGAG, for which the “relative binding free energy” value worked out at 0.209 kJ/mol.

Regarding TTTAGCACGTGATTTT, the “relative binding free energy” value is 0.418 kJ/mol.

For TCTCGCACGTGGGTAG, the “relative binding free energy” value was -0.586 kJ/mol.

For the sequence ATGACCACGTGGTGTG, the “relative binding free energy” value was -1.05 kJ/mol.

With AAATTCACGTGGGGGA, the “relative binding free energy” value stood at 0.251 kJ/mol.

Turning to GGGGACACGTGTCGGA, the “relative binding free energy” value turned out to be 0.502 kJ/mol.

As for CGACACACGTGGGGGG, the “relative binding free energy” value is -1 kJ/mol.

Take TTGGACACGTGAGTTT: the “relative binding free energy” value was 0.628 kJ/mol.

GTTGGCACGTGCTATT: the “relative binding free energy” value was -0.377 kJ/mol.

As to GAGGCCACGTGCTGGT, the “relative binding free energy” value is -0.126 kJ/mol.

Turning to TGGCTCACGTGTCGGG, the “relative binding free energy” value stood at 0.628 kJ/mol.

As for GGAGGCACGTGAGGAT, the “relative binding free energy” value is 0.544 kJ/mol.

In the case of AATGTCACGTGAAATT, the “relative binding free energy” value was 0.753 kJ/mol.

With TTGTACACGTGGGCTG, the “relative binding free energy” value was -0.293 kJ/mol.

As for ATTATCACGTGTATAG, the “relative binding free energy” value is -0.167 kJ/mol.

CTTCTCACGTGGGTTG: the “relative binding free energy” value was found to be 0.586 kJ/mol.

As to TCCAGCACGTGTGTGG, the “relative binding free energy” value worked out at 0.126 kJ/mol.

As for CGGGTCACGTGGCAGT, the “relative binding free energy” value was found to be 0.251 kJ/mol.

With AGTTACACGTGTGGGG, the “relative binding free energy” value is 0.586 kJ/mol.

For the sequence AGGATCACGTGAGTCT, the “relative binding free energy” value turned out to be 1.8 kJ/mol.

Take GTTCGCACGTGAAGTT: the “relative binding free energy” value amounted to 1.67 kJ/mol.

GGGGACACGTGTTCTT: the “relative binding free energy” value stood at 0.46 kJ/mol.

As to AAGGTCACGTGGACTT, the “relative binding free energy” value worked out at 0.879 kJ/mol.

For GTAATCACGTGGGACT, the “relative binding free energy” value came to 1.05 kJ/mol.

Turning to ATAATCACGTGTATGC, the “relative binding free energy” value came out at 0.293 kJ/mol.

With GGATGCACGTGGGGGT, the “relative binding free energy” value is -0.209 kJ/mol.

For TATGGCACGTGTCAAT, the “relative binding free energy” value came to 0 kJ/mol.

In the case of TTTGACACGTGAGTCT, the “relative binding free energy” value stood at 0.669 kJ/mol.

As for TGTTTCACGTGTTCTT, the “relative binding free energy” value worked out at 1.34 kJ/mol.

On to GTTAACACGTGTTTGG, for which the “relative binding free energy” value was 0.753 kJ/mol.

Take CATTTCACGTGGTATA: the “relative binding free energy” value stood at 0.92 kJ/mol.

On to GATTGCACGTGGTTGA, for which the “relative binding free energy” value was 0.335 kJ/mol.

On to TACGGCACGTGGTTTG, for which the “relative binding free energy” value is -1.05 kJ/mol.

In the case of AGATACACGTGCTGGG, the “relative binding free energy” value turned out to be 0.502 kJ/mol.

Turning to CGGTACACGTGCGTTT, the “relative binding free energy” value was 0.209 kJ/mol.

Consider AGTGACACGTGAGGTC, for which the “relative binding free energy” value is 0.879 kJ/mol.

For the sequence TTTTTCACGTGCTTTT, the “relative binding free energy” value turned out to be 1.51 kJ/mol.

As for CGGTTCACGTGAGGTG, the “relative binding free energy” value was found to be 1.63 kJ/mol.

As for CCGGTCACGTGGAGGG, the “relative binding free energy” value was 0.46 kJ/mol.

Regarding GAGGTCACGTGTAGCT, the “relative binding free energy” value came out at 0.711 kJ/mol.

For the sequence CGGCGCACGTGAGTTG, the “relative binding free energy” value turned out to be 0.46 kJ/mol.

Regarding AATTGCACGTGGGTTC, the “relative binding free energy” value was -0.92 kJ/mol.

Turning to TTTAGCACGTGGCAAG, the “relative binding free energy” value is -0.628 kJ/mol.

With GGCTGCACGTGTGGGG, the “relative binding free energy” value was 0.293 kJ/mol.

Consider CGGGACACGTGAGAGT, for which the “relative binding free energy” value was 1.21 kJ/mol.

With AAGATCACGTGATGTA, the “relative binding free energy” value was found to be 1.13 kJ/mol.

On to TCGTGCACGTGTGGGC, for which the “relative binding free energy” value was -0.628 kJ/mol.

On to TGCTTCACGTGGTTAG, for which the “relative binding free energy” value came out at 1 kJ/mol.

For the sequence CAGTGCACGTGCTTGG, the “relative binding free energy” value was -0.46 kJ/mol.

Regarding GATCGCACGTGTTATT, the “relative binding free energy” value turned out to be 0.167 kJ/mol.

With GCAATCACGTGTTGGT, the “relative binding free energy” value turned out to be 0.92 kJ/mol.

In the case of GGTATCACGTGTACAG, the “relative binding free energy” value was 0.879 kJ/mol.

For the sequence AGTTGCACGTGAAATA, the “relative binding free energy” value was found to be 1 kJ/mol.

TGGGCCACGTGGCTGT: the “relative binding free energy” value is -1.34 kJ/mol.

TTTAACACGTGGCGTG: the “relative binding free energy” value was 0.0418 kJ/mol.

Regarding GGAGTCACGTGTTCGT, the “relative binding free energy” value worked out at 0.669 kJ/mol.

Turning to GTGATCACGTGCTTTA, the “relative binding free energy” value came out at 0.879 kJ/mol.

For CGAATCACGTGGTGTA, the “relative binding free energy” value is 0.167 kJ/mol.

As to GTTGTCACGTGATACT, the “relative binding free energy” value turned out to be 0.544 kJ/mol.

For the sequence TACGGCACGTGGTCGT, the “relative binding free energy” value was -0.628 kJ/mol.

As for TTGGTCACGTGGTCAG, the “relative binding free energy” value was 0.167 kJ/mol.

Turning to GAGGGCACGTGATGAA, the “relative binding free energy” value amounted to 0.544 kJ/mol.

AAGAGCACGTGGTGTG: the “relative binding free energy” value is -0.669 kJ/mol.

On to TAAGACACGTGTTTAT, for which the “relative binding free energy” value is -0.209 kJ/mol.

For the sequence TGCTTCACGTGGTATG, the “relative binding free energy” value was 0.711 kJ/mol.

GTATACACGTGATTTG: the “relative binding free energy” value came to 0.795 kJ/mol.

On to GAGTGCACGTGTGTGG, for which the “relative binding free energy” value came to 0.377 kJ/mol.

For GATTGCACGTGATTGA, the “relative binding free energy” value came out at 1 kJ/mol.

Turning to TCTGCCACGTGTTTGT, the “relative binding free energy” value is -0.544 kJ/mol.

As for ATGTGCACGTGTTGAA, the “relative binding free energy” value was 0.335 kJ/mol.

For the sequence CGGTACACGTGTATAA, the “relative binding free energy” value was 0.753 kJ/mol.

Consider ATAACCACGTGAGGGT, for which the “relative binding free energy” value amounted to 0.544 kJ/mol.

Take TATAACACGTGGGATT: the “relative binding free energy” value is -0.46 kJ/mol.

As for CGAGTCACGTGAGAGT, the “relative binding free energy” value is 1.17 kJ/mol.

GTGCGCACGTGGGGCG: the “relative binding free energy” value is -0.879 kJ/mol.

As for GCTTTCACGTGCGGTG, the “relative binding free energy” value came to 1 kJ/mol.

With TTAAACACGTGTTAAG, the “relative binding free energy” value was -0.377 kJ/mol.

As for GTAAACACGTGGGGAT, the “relative binding free energy” value was -0.167 kJ/mol.

With GGTAGCACGTGGAGGA, the “relative binding free energy” value was -0.0418 kJ/mol.

Take AGATACACGTGTACGT: the “relative binding free energy” value is 0.628 kJ/mol.

As for GTCTGCACGTGAGTTG, the “relative binding free energy” value was 1.3 kJ/mol.

On to AGGGACACGTGGGTTG, for which the “relative binding free energy” value was -0.335 kJ/mol.

As for CAATGCACGTGTTTAT, the “relative binding free energy” value came out at 0 kJ/mol.

Regarding TTTGTCACGTGTATCA, the “relative binding free energy” value amounted to 0.544 kJ/mol.

As to ATGAACACGTGGTTGA, the “relative binding free energy” value is -0.0418 kJ/mol.

As for CTAGGCACGTGGATGT, the “relative binding free energy” value is -0.335 kJ/mol.

For the sequence CGTTGCACGTGGGCTG, the “relative binding free energy” value was -0.711 kJ/mol.
